Counter-ions that a name gives are not always drawn. ± gives the standard deviation of the averaged measurements. The list shows a part of the results. Single values are uncertain, as repeats are few or missing.
Columns and labels:
Assay in all cases: log2 surviving fraction relative to plate median (drug vs vehicle, or drug+dl922-947 vs dl922-947 alone); ovarian cancer lines: OVCAR4 is platinum-sensitive while Ov4Cis resists cisplatin and Ov4Carbo carboplatin; higher = more cell survival
Conditions in all cases: compound concentration: 10 uM, 192 h
OVCAR4 = test system: OVCAR4
Ov4Carbo = test system: Ov4Carbo
Ov4Cis = test system: Ov4Cis
[1] = dl922-947 oncolytic adenovirus co-treatment: MOI 10
[2] = dl922-947 oncolytic adenovirus co-treatment: none

SMILES	log2 surviving fraction (OVCAR4; [1])	log2 surviving fraction (OVCAR4; [2])	log2 surviving fraction (Ov4Carbo; [1])	log2 surviving fraction (Ov4Carbo; [2])	log2 surviving fraction (Ov4Cis; [1])	log2 surviving fraction (Ov4Cis; [2])
Cc1c(Nc2ncccc2C(=O)O)cccc1C(F)(F)F [Flunixin meglumin]	0.51 ± 0.19	0.296 ± 0.27	0.125	0.165	0.245	0.17
CCC1=C[C@H]2CN3CCc4c([nH]c5ccccc45)[C@](C(=O)OC)(C2)[C@H]13 [Catharanthine]	-1.07 ± 1	-1.29 ± 1.9	-1.07	-1.92	-1.17	-4.5
CCCC(=O)O[C@]1(C(=O)COC(C)=O)CC[C@H]2[C@@H]3C[C@H](F)C4=CC(=O)C=C[C@]4(C)[C@@]3(F)[C@@H](O)C[C@@]21C [Difluprednate]	1.16 ± 0.13	-0.0702 ± 1.3	1.2	0.164	0.81	-1.06
CCCCCCCCCCOc1cc2c(O)c(C(=O)OCC)cnc2cc1OCC [Decoquinate]	0.974 ± 0.36	0.832 ± 0.68	0.536	0.849	0.378	0.909
Nc1ccn(C[C@@H](CO)OCP(=O)(O)O)c(=O)n1 [Cidofovir (Vistide)]	0.356 ± 0.0065	-1.26 ± 0.43	-0.364	-0.000634	1.06	-0.222
CCC[C@@H]1C[C@@H](C(=O)N[C@@H]([C@H]2O[C@H](SC)[C@H](O)[C@@H](O)[C@H]2O)[C@H](C)Cl)N(C)C1 [Clindamycin hydrochloride (Dalacin)]	0.965 ± 0.4	0.264 ± 0.43	0.839	1.84	0.198	0.701
CC1CNc2c(cccc2S(=O)(=O)N[C@@H](CCCNC(=N)N)C(=O)N2CC[C@@H](C)C[C@@H]2C(=O)O)C1 (stereo not given in full) [Argatroban]	0.845 ± 0.44	0.934 ± 0.22	-0.741	0.198	1.02	0.584
CCCCCCOC(=O)NC(=N)c1ccc(NCc2nc3cc(C(=O)N(CCC(=O)OCC)c4ccccn4)ccc3n2C)cc1 [BIBR-1048 (Dabigatran)]	-0.914 ± 1.6	-3.48 ± 5.3	-5.14	0.638	-2.28	-0.968
NC(=O)c1ncn([C@@H]2O[C@H](CO)[C@@H](O)[C@H]2O)n1 [Ribavirin (Copegus)]	0.303 ± 0.4	1.5 ± 0.71	0.546	0.057	0.281	0.759
C[C@]12CC[C@H](O)CC1=CC[C@@H]1[C@@H]2CC[C@]2(C)C(=O)CC[C@@H]12 [Dehydroepiandrosterone (DHEA)]	0.289 ± 0.18	0.554 ± 0.27	0.74	-0.0756	0.739	0.743
O=C(O)CCc1nc(-c2ccccc2)c(-c2ccccc2)o1 [Oxaprozin]	0.765 ± 1.1	1.23 ± 0.15	0.63	0.738	0.55	0.104
O.O=[Si]=O.O=[Si]=O.O=[Si]=O.O=[Si]=O.[O]=[Mg].[O]=[Mg].[O]=[Mg]	0.435 ± 0.75	0.167 ± 1.4	0.076	0.888	0.044	0.0224
CCn1cc(C(=O)O)c(=O)c2cnc(N3CCCC3)nc21 [Piromidic Acid]	-0.289 ± 1.5	-0.336 ± 0.34	-0.387	0.368	0.119	0.0994
O=C(O)CCCC[C@@H]1SC[C@@H]2NC(=O)N[C@@H]21 [Biotin (Vitamin B7)]	-0.0328 ± 0.38	-0.288 ± 0.53	0.258	0.791	0.259	0.863
CCCCCCCCCCC[C@@H](C[C@@H]1OC(=O)[C@H]1CCCCCC)OC(=O)[C@H](CC(C)C)NC=O [Orlistat (Alli, Xenical)]	-1.13 ± 0.24	-1.6205 ± 4.2e-05	1.98	0.629	-2.79	-1.34
Cc1ncc(C[n+]2csc(CCO)c2C)c(N)n1 [Thiamine HCl (Vitamin B1)]	-0.528 ± 0.33	-0.291 ± 0.69	0.047	-1.19	0.499	-0.621
CCOc1ccc2nc(S(N)(=O)=O)sc2c1 [Ethoxzolamide]	0.379 ± 0.34	-0.198 ± 0.31	1.56	0.998	0.438	0.114
[O-][n+]1ccccc1[S-].[O-][n+]1ccccc1[S-].[Zn+2] [Pyrithione zinc]	-8.85 ± 0.8	-10.5 ± 5.9	-7.54	-10.7	-8.84	-13.5
Cc1nc(Nc2ncc(C(=O)Nc3c(C)cccc3Cl)s2)cc(N2CCN(CCO)CC2)n1	-2.8 ± 1.3	-7.26 ± 2.2	-5.04	-11.9	-1.74	-4.18
NC[C@H]1O[C@H](O[C@H]2[C@H](O)[C@@H](O[C@H]3O[C@H](CO)[C@@H](O)[C@H](N)[C@H]3O)[C@H](N)C[C@@H]2N)[C@H](N)[C@@H](O)[C@@H]1O [Bekanamycin]	0.261 ± 0.13	0.864 ± 2	-0.461	0.554	-1.5	0.551
C[N+]1(C)[C@@H]2C[C@@H](OC(=O)[C@H](CO)c3ccccc3)C[C@H]1[C@@H]1O[C@@H]12 [Methscopolamine (Pamine)]	0.347 ± 0.061	0.0275 ± 0.13	1.09	-0.555	-0.367	0.388
CCOc1ccc2ccccc2c1C(=O)N[C@@H]1C(=O)N2[C@@H]1SC(C)(C)[C@@H]2C(=O)O [nafcillin sodium monohydrate]	0.765 ± 0.088	0.651 ± 0.25	-0.641	0.89	0.503	0.075
O=C(O[C@H]1C[N+]2(CCCOc3ccccc3)CCC1CC2)C(O)(c1cccs1)c1cccs1 [Aclidinium Bromide]	0.704 ± 0.3	0.22 ± 2.9	-0.512	0.882	0.665	0.0258
CNCCCC12CCC(c3ccccc31)c1ccccc12 [Maprotiline hydrochloride]	-3.67 ± 0.74	-2.21 ± 1.1	-3.59	-2.57	-6.67	-5.78
CC(C)NCC(O)c1ccc(O)c(O)c1 (stereo not given) [Isoprenaline hydrochloride]	0.19 ± 0.67	-0.0965 ± 0.42	0.0603	0.625	-0.691	0.9
CCCC(CCC)C(=O)O[C@H]1C[C@H]2CC[C@@H](C1)[N+]2(C)C [Anisotropine Methylbromide]	-0.00106 ± 0.0077	0.329 ± 0.18	0.00223	-0.248	-0.0533	0.655
O=C(Nc1c(Cl)cncc1Cl)c1ccc(OC(F)F)c(OCC2CC2)c1 [Roflumilast (Daxas)]	-0.164 ± 0.32	0.179 ± 0.57	1.18	-0.689	0.621	0.0847
CC1=C(/C=C/C(C)=C/C=C/C(C)=C/C(=O)O)C(C)(C)CCC1 [Tretinoin (Aberela)]	0.239 ± 0.74	-0.0516 ± 0.78	0.696	-0.701	0.224	0.1
CCOC(=O)c1ncn2c1CN(C)C(=O)c1cc(F)ccc1-2 [Flumazenil]	0.0489 ± 1	0.612 ± 0.14	0.064	-0.231	0.852	0.426
N[C@@H](Cc1ccc(O)c(O)c1)C(=O)O [Levodopa (Sinemet)]	-0.327 ± 0.41	-0.0447 ± 0.35	0.249	0.69	-0.0414	0.0295

From the supplement of paper PMC8813932
